{"source": "patent US20250082624A1", "about": "“METHODS OF TREATING COGNITIVE IMPAIRMENT” (NeuroTherapia, Inc., priority 2023, published 2025)", "key": {"[1]": {"system": "volunteers and AD patients", "assay": "Orthostatic blood pressure and vertigo tests (timed get-up and go, Nystagmus test, Romberg test)", "format": "in vivo, human", "conditions": "Phase 1b, 10, 30, 90 mg oral QD for 7 days", "protocol": "Assessments: Subjects were assessed for changes in vital signs, orthostatic blood pressure, Romberg test, nystagmus, timed get up and go, electrocardiograms, electroencephalograms (EEG), and laboratory studies. Subjective questionnaires of drug effects (ARCI-M) were administered. Cohort B returned and received a single repeat dose after a standard high-fat meal. The AD cohort also underwent cognitive testing (MMSE, ADAS-COG, MOCA) and had blood samples for biomarkers drawn.\n(§1) An informational letter was filed with the FDA to inform them of this study. The study was designed as follows: • 3 healthy cohorts (cohorts A-C) followed by AD cohort (cohort D) treated at MTD • 6 treated, 2 placebos in each cohort • Doses: 10, 30, 90 mg/treatment—latter doses can be adjusted based on PK assessment • In unit, 7 days of treatment • Monitor vertigo with various tests: (1) timed get-up and go, (2) Nystagmus test, (3) Romberg test, and (4) changes in orthostatic blood pressure (Day 1, 3 and 8) • Use 24 hr EEG monitoring for CNS safety assessment • Assess plasma biomarkers of inflammation and AD pre- and post-treatment in AD cohort • Assess changes on cognition post-treatment using MMSE and ADAS-cog • Fed/fasted study to determine food effects on PK as a subset of the Phase 1b"}, "[2]": {"system": "volunteers and AD patients", "assay": "24-hour EEG safety assessment and post-hoc qEEG analysis", "format": "in vivo, human", "conditions": "Phase 1b, all 4 cohorts", "protocol": "Protocol-specified EEG assessments were for safety assessment of any potential epileptogenic changes. A post-hoc analysis of quantitative EEG (qEEG) changes was also performed.\nas §1\nNo subjects had clinically meaningful abnormal values or changes from baseline, nor differences between placebo and active drug, in EEG readings in any of the 4 cohorts."}}, "note": "“Also recorded” adds a separate entry of the source. Not every entry of the source has a single result; some have several. Only these are listed. An entry can have further records. Values given together appear to be repeats (runs, samples, wells or individuals); one of them may be the mean. What stands in brackets tells the records apart. The letters are not those of the source and start again with each entry."}
{"molecule": "CC1(Cc2ccccc2)COc2cc(C(=O)N3CCCCC3)ccc21", "note": "(centres unmarked) [NTRX-07, 3-benzyl-3-methyl-2,3-dihydrobenzofuran-6-carboxylic acid-piperidine amide]", "values": [{"measurement": "Vertigo: timed get-up and go, Nystagmus test, Romberg test", "setting": "[1]", "value": "No participants had changes [passage A] and no evidence of vertigo at any dose [passage B] and No evidence [table]"}, {"measurement": "Abnormal EEG / brain activity (24-hour EEG)", "setting": "[2]", "value": "No participants had abnormalities on the EEG [passage A]; also recorded: no evidence of abnormal brain activity [passage B]; also recorded: No change in EEG [table]"}]}
